# Test results reported in PubChem BioAssay AID686979 (National Center for Advancing Translational Sciences (NCATS), 2013).
# Values joined by “and” are separate entries in the source; they are usually repeats but may differ in a detail not shown here. Equal entries are not always repeated. The whole screen tested about 420,000 compounds, of which about 50,000 (12%) were called active. This list was built around the results that the source calls inconclusive (neither active nor inactive); the mix of calls is not that of the screen. Calls come from the whole dose curve; as a rule, active = well fitted inhibition curve with a large enough effect; inconclusive = small, poorly fitted or top-dose-only effect; inactive = flat fitted curve, though single readings scatter. No potency is given beside an inconclusive call; the fits are too rough.
# Assay: qHTS for Inhibitors of human tyrosyl-DNA phosphodiesterase 1 (TDP1): qHTS in cells in presence of CPT; note: nearly all actives have a fitted effect of over 55% in size
# Details: chicken DT40 Tdp1-/-;hTDP1 cells + 20 nM CPT, ATP luminescence, 48 h; activity change, negative = growth inhibition: at 46.2 µM (top of the series) unless noted
# Outline: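 Chicken DT40 Tdp1-/- cells complemented with human TDP1, 400 cells/well, exposed to compounds plus 20 nM camptothecin for at least 48 h at 37 C; viability read as ATP content by CellTiter-Glo luminescence.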
# % is set by controls: 0 for no effect and ±100 for the full control effect; potency is the fitted concentration of half-maximal effect; tags give direction and shape of the fitted curve.
SMILES,Potency,"activity change, negative = growth inhibition"
C=CCn1c(SCCN2C(=O)c3ccccc3C2=O)nc2scc(-c3ccccc3)c2c1=O,"inconclusive [inhibitor, single point]",
COC(=O)c1ccc(CC(=O)c2ccc(O)cc2O)o1,"inconclusive [inhibitor, single point]",
Nc1nc(Oc2ccc(F)cc2)c(Br)c(=O)[nH]1,inactive,
CCN(CC)S(=O)(=O)c1ccc(/C=C/C(=O)OCC(=O)c2c(N)n(C)c(=O)n(C)c2=O)cc1,"inconclusive [inhibitor, single point]",
O=c1[nH]c(CSc2ccccn2)nc2c1cnn2-c1ccccc1,,inconclusive: -30.9% [inhibitor]
COc1cccc(C(=O)NCC(=O)OCc2cc(=O)n3ccsc3n2)c1,inactive,
CSCCC(NS(=O)(=O)c1ccc2c(c1)oc(=O)n2C)C(=O)N1CCN(c2ccc(C(C)=O)cc2)CC1 (centres undefined),inactive,
Cc1ccc(S(=O)(=O)N(C)c2ccc(C(=O)NCCc3ccccc3)cc2)cc1,"inconclusive [inhibitor, single point]",
O=C(N/N=C/c1ccccn1)c1ccc(S(=O)(=O)N2CCCCCC2)cc1,inactive,
Cn1cnnc1SCC(=O)Nc1cc(S(=O)(=O)N2CCCCC2)ccc1Cl,inactive,
CC(=O)N1CCc2cc(S(=O)(=O)N3CC(C)CC(C)C3)ccc21 (centres undefined),"inconclusive [inhibitor, partial curve, poor fit]",
Cc1nc(SCCc2ccccc2)[nH]c(=O)c1C,"inconclusive [inhibitor, single point]",
COc1ccc(C(=O)Nc2ccc(S(=O)(=O)Nc3cc(C)nc(C)n3)cc2)c(OC)c1,active: 20.6 µM,
CC(Cc1cccs1)NC(=S)Nc1ccc(Cl)cc1 (centres undefined),"inconclusive [inhibitor, partial curve]",
COc1ccc(C(=O)c2ccccc2C(=O)c2ccccc2)cc1,"inconclusive [inhibitor, single point]",
CCOC(=O)c1c(CSc2ccccc2)n(C)c2cc(Br)c(OCC(O)CNC(CO)(CO)CO)cc12 (centres undefined),"inconclusive [inhibitor, single point]",
C=CCn1c(SCC(=O)NCC2CCCO2)nc2scc(-c3ccccc3)c2c1=O (centres undefined),active: 25.9 µM,
Cc1ccc(C(=O)Nc2nc(-c3nnn(-c4cccc(C(F)(F)F)c4)c3C)ns2)cc1,active: 3.26 µM,
COc1cc(/C=C(/C#N)c2nc3ccccc3[nH]2)ccc1OCc1ccc(C(=O)O)o1,inactive,
Cc1cccc(C)c1-n1nnnc1C1(C)CCC(=O)N1Cc1cccc(C(F)(F)F)c1 (centres undefined),active: 23.1 µM,
Cc1ccc2nc(C)cc(N/N=C/c3ccccc3O)c2c1,inactive,
CC(=O)N1c2ccc(S(=O)(=O)N3CCC(C(=O)Nc4ccccn4)CC3)cc2CC1C (centres undefined),inactive,
CN(Cc1cccc(-n2cccn2)c1)Cc1cn(C)nc1-c1ccccc1F,"inconclusive [inhibitor, single point]",

SMILES,Potency,"activity change, negative = growth inhibition"
O=c1[nH]c(CSc2ncnc3sccc23)nc2ccccc12,"inconclusive [inhibitor, single point]",
CCCCN1C[C@H](CSC)[C@@H](CC(=O)Nc2ccc(Br)cc2)C1=O,"inconclusive [inhibitor, single point]",
CC(C)CC(=O)Nc1nnc(SCc2cc(=O)n3ccccc3n2)s1,"inconclusive [inhibitor, single point]",
Cc1oc2cc3oc(=O)c(CCC(=O)NCCCn4ccnc4)c(C)c3cc2c1C,"inconclusive [inhibitor, single point]",
O=C1CC[C@H](N2C(=O)c3ccccc3C2=O)C(=O)N1,inactive,
Cc1cccc(-c2nc(CN3CCCC(C(=O)NC4CCCCCC4)C3)c(C)o2)c1 (centres undefined),active: 20.6 µM,
Cc1noc(C)c1CSc1ccccc1C(=O)N1CCN(c2ccccc2)CC1,"inconclusive [inhibitor, single point]",
O=C(C[n+]1ccccc1)N1c2ccccc2Sc2ccccc21,"inconclusive [inhibitor, single point]",
Cc1cc(C)c(NC(=O)CCCn2c(C)c3cnn(-c4ccccc4)c(=O)c3c2C)c(C)c1,"inconclusive [inhibitor, single point]",
C/C(=N\NS(=O)(=O)c1ccc(C)c([N+](=O)[O-])c1)c1cc2ccccc2o1,"inconclusive [inhibitor, single point]",
CC1(c2nnc(Cc3ccccc3)o2)CC(c2cccc(Cl)c2)=NO1 (centres undefined),"inconclusive [inhibitor, single point]",
COc1cccc2cc(-c3nc(-c4cccs4)cs3)c(=O)oc12,"inconclusive [inhibitor, single point]",
CCN(CC)c1ccc(NC(=O)C2CCCN(S(=O)(=O)c3cccnc3)C2)c(C)c1 (centres undefined),active: 14.6 µM,
CCOC(=O)C1CCN(C(=O)c2ccc(OCC(=O)Nc3ccc(OCC)cc3)c(OC)c2)CC1,active: 20.6 µM,
CCCC[C@@H]1CNC(=S)N1CCc1cccc2ccccc12,"inconclusive [inhibitor, single point]",
O=c1c(S(=O)(=O)c2cccc(Cl)c2)cn(Cc2ccccc2)c2cc(N3CCCCC3)c(F)cc12,inactive,
CC(=O)CC(=O)Nc1ccn(-c2ccccc2)n1,inactive,
CCN(CC)S(=O)(=O)c1ccc2[nH]cc(C(=O)NCCc3ccccc3)c(=O)c2c1,active: 14.6 µM and active: 23.1 µM,
COc1ccc(N2CCN(C(c3cccs3)c3nnnn3C3CCCC3)CC2)cc1 (centres undefined),active: 20.6 µM,
Cc1ccc(C(=O)NC2CCCC(C)C2C)cc1S(=O)(=O)N1CCCCC1 (centres undefined),"inconclusive [inhibitor, single point]",
COc1ccc(C(=O)NC2CC(C)(C)Cc3c2cnn3-c2ccccc2)c(OC)c1 (centres undefined),"inconclusive [inhibitor, single point]",
CCC(=O)c1c(CC)c2n3c1CC[C@H]3CCC2,inactive,
CC(C)=CCc1c(O)cc(O)c2c(=O)c3c(CC=C(C)C)c(O)ccc3oc12,"inconclusive [inhibitor, single point]",

SMILES,Potency,"activity change, negative = growth inhibition"
COC(=O)C1C(=O)C2=C(CC1C)NC(C)=C(C(=O)OCc1ccc(OC)cc1)C2c1ccc(C)o1 (centres undefined),"inconclusive [inhibitor, partial curve]",
CC(C)(C)c1[nH]nc2c1C(c1ccsc1)C(C#N)=C(N)O2 (centres undefined),"inconclusive [inhibitor, single point]",
COc1cccc(C(NC(=O)C2CCN(CCCOc3ccccc3)CC2)c2ccccn2)c1 (centres undefined),"inconclusive [inhibitor, single point]",
Cc1ccc(NS(=O)(=O)c2ccc(C(=O)NCCCN3CCCC3=O)cc2)cc1C,active: 13 µM,
CCCc1c(C(=O)N/N=C/c2ccccc2OCc2ccc(F)cc2)nnn1-c1nonc1N,"inconclusive [inhibitor, partial curve]",
COc1ccc(-c2nc3c(C)cc(Br)cn3c2CC2CCCCC2)cc1OC,"inconclusive [inhibitor, single point]",
CC1CCCC(NC(=O)c2cc(S(=O)(=O)N3CCCCC3)ccc2Cl)C1C (centres undefined),"inconclusive [inhibitor, single point]",
O=C(CCNC(=O)c1ccc(Cl)cc1)Nc1ccc(S(=O)(=O)N2CCOCC2)cc1,"inconclusive [inhibitor, partial curve]",
CC1=C(C(=O)N2CCOCC2)CC(CC(=O)NCCc2ccccn2)C(=O)N1CCC1=CCCCC1 (centres undefined),inactive,
Cc1ccsc1CNCc1cc(Cl)ccc1O,inactive,
CCOc1ccc(-n2c(=O)c3c(C)c(C)sc3n(CC(=O)N3CCC(C)CC3)c2=O)cc1,"inconclusive [inhibitor, single point]",
CC1(C)OC(=O)N(c2ccccc2)C12C=Cc1cc(Br)ccc1O2 (centres undefined),"inconclusive [inhibitor, single point]",
Cc1cccc(CNC(=O)c2ccc(C)c(-n3c(C)nc4cccnc43)c2)c1,"inconclusive [inhibitor, single point]",
Nc1nc(=O)n(C2CC(O)C(CO)O2)cc1Cl (centres undefined),"inconclusive [inhibitor, full curve, poor fit]",
Cc1cc(N=Nc2ccccc2)cc(C)c1NC(=O)C(F)(F)F,"inconclusive [inhibitor, single point]",
Fc1ccc(-[n+]2nc(Nc3ccccc3)sc2-c2cccc(Cl)c2Cl)cc1,"inconclusive [inhibitor, partial curve, poor fit]",
COCCNC(=O)c1cccc(Nc2nc(-c3ccccc3)c3cc(Cl)ccc3n2)c1,active: 14.6 µM,
COc1cccc(-n2cc(C(=O)OCc3ccc(Cl)cc3)c3ccccc3c2=O)c1,"inconclusive [inhibitor, single point]",
CC(/C=N/NC(=O)c1cc(C2CC2)[nH]n1)=C\c1ccccc1,"inconclusive [inhibitor, single point]",
CCOCc1nnc(NC(=O)C2CCN(C(=O)C3CC(=O)N(c4ccc(C)cc4)C3)CC2)s1 (centres undefined),inactive,
COc1ccccc1OCCN(C#N)c1nc(N(C)C)nc(N(C)C)n1,active: 20.6 µM,
Cc1ccc(C2(C)NC(=O)N(CC(=O)Nc3cccnc3Cl)C2=O)cc1 (centres undefined),inactive,
COc1cccc(C(=O)N(C)CC2CCN(CCc3cccc(C(F)(F)F)c3)CC2)c1,"inconclusive [inhibitor, single point]",
